The other results are listed elsewhere or left out. The list includes weakly bound sequences.

The target in this experiment is MaxL homodimer (UniProt P61244). Briefly: universal protein-binding microarray (PBM). The note with it: PBS-based mixture, 10 nM His-tagged protein dimer, 2% milk, 200 ng/uL BSA, 50 ng/uL salmon testes DNA, 0.02% TX-100; detection with Alexa 488 anti-His …; high values mean tight binding; most listed sequences are background and not binding sites; double strand, one strand shown.
UniProt P61244, sequence (P61244 whole entry): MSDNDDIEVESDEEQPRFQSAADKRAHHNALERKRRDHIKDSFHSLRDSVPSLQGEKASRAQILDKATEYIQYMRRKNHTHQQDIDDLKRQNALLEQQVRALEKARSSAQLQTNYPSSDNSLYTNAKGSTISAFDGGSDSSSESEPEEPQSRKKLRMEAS
Regarding TAATACTA, the binding signal (normalized occupancy) is 0.0779.

With CAGACCAA, the binding signal (normalized occupancy) is 0.0706.

For AGAAGCGA, the binding signal (normalized occupancy) amounted to 0.0704.

ATAGTGGC: the binding signal (normalized occupancy) came to 0.0793.

For the sequence CGGGATGC, the binding signal (normalized occupancy) was determined as 0.0773.

Take ATTGGCGC: the binding signal (normalized occupancy) was found to be 0.0745.

On to TCCGGAGA, for which the binding signal (normalized occupancy) was 0.0755.

Consider AACGTCTC, for which the binding signal (normalized occupancy) worked out at 0.0749.

For the sequence AGGCCCGG, the binding signal (normalized occupancy) turned out to be 0.064.

For ACTGGGAT, the binding signal (normalized occupancy) came out at 0.0742.

Take CAGCATGG: the binding signal (normalized occupancy) was determined as 0.13.

Regarding GGGGGAAC, the binding signal (normalized occupancy) was found to be 0.0787.

As for ACCAGGCT, the binding signal (normalized occupancy) stood at 0.0767.

Consider ACCTCGTG, for which the binding signal (normalized occupancy) was 0.156.

Regarding AAAAGGGC, the binding signal (normalized occupancy) was found to be 0.0656.

For the sequence CACCACTG, the binding signal (normalized occupancy) was 0.0775.

In the case of AGTTCCGG, the binding signal (normalized occupancy) is 0.066.

For the sequence ATCCATCA, the binding signal (normalized occupancy) stood at 0.0851.

With ACGAGGAC, the binding signal (normalized occupancy) was 0.0874.

For AGAAAACG, the binding signal (normalized occupancy) stood at 0.0753.

GCCACTCA: the binding signal (normalized occupancy) was 0.0767.

As for CGAACCAG, the binding signal (normalized occupancy) is 0.0693.

GCCAACAA: the binding signal (normalized occupancy) is 0.0774.

On to GCGGGAAA, for which the binding signal (normalized occupancy) amounted to 0.0679.

Consider GCTCCTGA, for which the binding signal (normalized occupancy) was found to be 0.0681.

Turning to AGGTGCCC, the binding signal (normalized occupancy) amounted to 0.0727.

For ACGAAATC, the binding signal (normalized occupancy) turned out to be 0.0781.

As to AATTAATC, the binding signal (normalized occupancy) stood at 0.0741.

As for AGCAACGG, the binding signal (normalized occupancy) is 0.0727.

Regarding AACGCCAA, the binding signal (normalized occupancy) came out at 0.0782.

Consider ATTCATCC, for which the binding signal (normalized occupancy) amounted to 0.0779.

For the sequence CACCAACG, the binding signal (normalized occupancy) came to 0.0773.

As to AACACGTA, the binding signal (normalized occupancy) is 0.083.

As for AACTGTAG, the binding signal (normalized occupancy) is 0.0714.

Take ATTGAAAA: the binding signal (normalized occupancy) worked out at 0.0765.

Turning to ACGTACTC, the binding signal (normalized occupancy) came out at 0.077.

On to CGGTTACA, for which the binding signal (normalized occupancy) amounted to 0.0735.

Turning to AGGGCTTA, the binding signal (normalized occupancy) came out at 0.0711.

In the case of ACTGCAGC, the binding signal (normalized occupancy) worked out at 0.0737.

With ACGAGTAT, the binding signal (normalized occupancy) was 0.0802.

As to TCCGCAGA, the binding signal (normalized occupancy) stood at 0.0666.

As for CGCGTACC, the binding signal (normalized occupancy) was determined as 0.0717.

Take GGGCGCGA: the binding signal (normalized occupancy) came to 0.07.

Turning to GCATATGC, the binding signal (normalized occupancy) worked out at 0.0998.

As to CTTCAGGA, the binding signal (normalized occupancy) came out at 0.0691.

As for CTTATGAA, the binding signal (normalized occupancy) was 0.0827.

On to CGACAGTC, for which the binding signal (normalized occupancy) was determined as 0.0692.

GCAGCAAC: the binding signal (normalized occupancy) is 0.0702.

Take ACGAACTG: the binding signal (normalized occupancy) amounted to 0.0714.

In the case of CAACAGAG, the binding signal (normalized occupancy) came to 0.0679.

For the sequence GCAGTAGA, the binding signal (normalized occupancy) is 0.0711.

Consider CACGGTCC, for which the binding signal (normalized occupancy) is 0.072.

In the case of AACCGCCC, the binding signal (normalized occupancy) turned out to be 0.0689.

CAACTCAA: the binding signal (normalized occupancy) turned out to be 0.0746.

As to CGACTCAC, the binding signal (normalized occupancy) came to 0.0786.

As for CGCGCGTC, the binding signal (normalized occupancy) came to 0.075.

Regarding ATCGAAAA, the binding signal (normalized occupancy) is 0.0724.

Consider CGGATTGC, for which the binding signal (normalized occupancy) was 0.0705.

Consider CCATGGTA, for which the binding signal (normalized occupancy) is 0.0851.

With GAGGACCA, the binding signal (normalized occupancy) amounted to 0.0781.

For the sequence CTAGCTCA, the binding signal (normalized occupancy) worked out at 0.0759.

Take CTAGGCGA: the binding signal (normalized occupancy) worked out at 0.07.

In the case of TGCGCTAA, the binding signal (normalized occupancy) was 0.08.

Regarding CCGGATTC, the binding signal (normalized occupancy) is 0.0748.

In the case of CGTTCCCA, the binding signal (normalized occupancy) came to 0.0785.

As for AATGTATG, the binding signal (normalized occupancy) was 0.0889.

Regarding AGCAATGA, the binding signal (normalized occupancy) is 0.0743.

Regarding CGCCTCCG, the binding signal (normalized occupancy) came to 0.0688.

On to AAACCTCC, for which the binding signal (normalized occupancy) was found to be 0.0721.

As for CCAGCGCG, the binding signal (normalized occupancy) is 0.0739.

For the sequence TCAAGGCA, the binding signal (normalized occupancy) was 0.0748.

On to GCGTTCCC, for which the binding signal (normalized occupancy) turned out to be 0.0725.

On to GATTGCAA, for which the binding signal (normalized occupancy) was 0.0727.

Regarding AAAGGAAG, the binding signal (normalized occupancy) amounted to 0.0688.

As for ACGACTAT, the binding signal (normalized occupancy) was determined as 0.0774.

Consider TGTACCAA, for which the binding signal (normalized occupancy) was determined as 0.0764.

As for ATAGCTTG, the binding signal (normalized occupancy) was 0.0718.

As to TACTCTAA, the binding signal (normalized occupancy) turned out to be 0.0763.

For the sequence AAATGCTT, the binding signal (normalized occupancy) was 0.0744.

Take CCACTTCC: the binding signal (normalized occupancy) came out at 0.0703.

Regarding ACCCAAGA, the binding signal (normalized occupancy) was found to be 0.0765.

As to GAATTGCC, the binding signal (normalized occupancy) was 0.0732.

For the sequence GATCTACC, the binding signal (normalized occupancy) is 0.0732.

Take GCTTCGCA: the binding signal (normalized occupancy) came out at 0.066.

Take GGGGCAAA: the binding signal (normalized occupancy) came to 0.074.

GAAACGTC: the binding signal (normalized occupancy) amounted to 0.0712.

Regarding CCTTGTAC, the binding signal (normalized occupancy) stood at 0.0764.

As to TCCTTTAA, the binding signal (normalized occupancy) worked out at 0.0734.

Regarding CTGGATTC, the binding signal (normalized occupancy) was found to be 0.0721.

Consider CAGAGAAA, for which the binding signal (normalized occupancy) stood at 0.0739.

In the case of ACCGGGAT, the binding signal (normalized occupancy) turned out to be 0.0741.

For ACGGAAAG, the binding signal (normalized occupancy) was found to be 0.0731.

For the sequence AATTTTGG, the binding signal (normalized occupancy) stood at 0.0737.

On to CCGCTGAG, for which the binding signal (normalized occupancy) was 0.0657.

Take CGAAGTAC: the binding signal (normalized occupancy) amounted to 0.0733.

Turning to AACCTCTA, the binding signal (normalized occupancy) worked out at 0.0738.

Regarding CAGAGGCG, the binding signal (normalized occupancy) is 0.071.

On to ATAGGGTA, for which the binding signal (normalized occupancy) worked out at 0.0808.

With AGCGCCAG, the binding signal (normalized occupancy) worked out at 0.0652.

Take CCATGGAA: the binding signal (normalized occupancy) came to 0.0854.

In the case of ATCTAAAA, the binding signal (normalized occupancy) was 0.0753.

In the case of AAGCGACT, the binding signal (normalized occupancy) was 0.0719.

For the sequence ATTGACTA, the binding signal (normalized occupancy) turned out to be 0.0737.

Regarding GCGAAGCC, the binding signal (normalized occupancy) came to 0.0641.

Turning to ATGGCCTG, the binding signal (normalized occupancy) turned out to be 0.0801.

For GACGATTA, the binding signal (normalized occupancy) came out at 0.0804.

Consider AGGATGGC, for which the binding signal (normalized occupancy) amounted to 0.0769.

On to ATCTTAGA, for which the binding signal (normalized occupancy) was determined as 0.0729.

ACACTTCG: the binding signal (normalized occupancy) is 0.0758.

CTCCCGTA: the binding signal (normalized occupancy) came out at 0.0741.

ATATAGTA: the binding signal (normalized occupancy) was found to be 0.0877.

In the case of GGGTGACC, the binding signal (normalized occupancy) stood at 0.0751.

As for CTGCGGAC, the binding signal (normalized occupancy) was 0.0697.

With CCATCTGC, the binding signal (normalized occupancy) turned out to be 0.0812.

As to AAGCCCCG, the binding signal (normalized occupancy) was determined as 0.072.

Consider ATTGCCGA, for which the binding signal (normalized occupancy) amounted to 0.0726.

On to TTCCAAAA, for which the binding signal (normalized occupancy) worked out at 0.0781.

GTGTAAAA: the binding signal (normalized occupancy) is 0.0873.

For the sequence ACTACTTA, the binding signal (normalized occupancy) is 0.0707.

On to ACTCCAGC, for which the binding signal (normalized occupancy) amounted to 0.072.

ACTATTTC: the binding signal (normalized occupancy) was 0.0778.

On to ACTGATCT, for which the binding signal (normalized occupancy) was 0.0763.

As to CGTTCTCC, the binding signal (normalized occupancy) came out at 0.0832.

Consider ACTAGACC, for which the binding signal (normalized occupancy) is 0.0763.

On to AGGAGCAG, for which the binding signal (normalized occupancy) is 0.0707.

For the sequence ATTAGCGG, the binding signal (normalized occupancy) amounted to 0.0719.

For AGTTAGAC, the binding signal (normalized occupancy) was found to be 0.0693.

For the sequence ACCAGGCC, the binding signal (normalized occupancy) stood at 0.0726.

Take AAACAGAG: the binding signal (normalized occupancy) amounted to 0.0695.

On to TATGCAGA, for which the binding signal (normalized occupancy) amounted to 0.0804.

Regarding AGTTGGCC, the binding signal (normalized occupancy) was determined as 0.0702.

Consider AGATCGGA, for which the binding signal (normalized occupancy) was 0.0756.

For CATGAATC, the binding signal (normalized occupancy) turned out to be 0.082.

On to ACGTATTA, for which the binding signal (normalized occupancy) stood at 0.0818.

CCACATAC: the binding signal (normalized occupancy) amounted to 0.0822.

For AAGGTGTA, the binding signal (normalized occupancy) was 0.0773.

As to AGATTATA, the binding signal (normalized occupancy) amounted to 0.0768.

As to TCACAGAA, the binding signal (normalized occupancy) is 0.0717.

With AGTACTCC, the binding signal (normalized occupancy) is 0.0715.

Regarding CAGCCAAC, the binding signal (normalized occupancy) was 0.0804.

Consider CCGCGAAA, for which the binding signal (normalized occupancy) was 0.0734.

For the sequence GTTTGGGA, the binding signal (normalized occupancy) was 0.0746.

CCAGTATA: the binding signal (normalized occupancy) was determined as 0.0771.

Regarding ACCTAAAA, the binding signal (normalized occupancy) was found to be 0.0747.

For the sequence GCCCAGGA, the binding signal (normalized occupancy) is 0.0678.

Regarding GGGAGTCA, the binding signal (normalized occupancy) stood at 0.0757.

As to AGCACTGA, the binding signal (normalized occupancy) amounted to 0.0719.

Consider CACTACAG, for which the binding signal (normalized occupancy) was found to be 0.0737.

Turning to AAGTTCAA, the binding signal (normalized occupancy) came to 0.0758.

Take ATTGGTAA: the binding signal (normalized occupancy) was found to be 0.0709.

Regarding CTGAGCAC, the binding signal (normalized occupancy) was 0.0748.

Consider CTATGCAA, for which the binding signal (normalized occupancy) amounted to 0.0829.

As to ATATGAAG, the binding signal (normalized occupancy) turned out to be 0.0765.

Turning to GCCGACCC, the binding signal (normalized occupancy) stood at 0.0709.

Take GAAGTGAC: the binding signal (normalized occupancy) was found to be 0.0733.

Turning to GGTCGGTA, the binding signal (normalized occupancy) came out at 0.0767.

TAAGAGGA: the binding signal (normalized occupancy) was found to be 0.076.

Turning to CGACACAG, the binding signal (normalized occupancy) was 0.0724.

For CCCTGCTA, the binding signal (normalized occupancy) came to 0.0683.

As to AAGAAAGA, the binding signal (normalized occupancy) came to 0.0736.

As to CCGTAACA, the binding signal (normalized occupancy) stood at 0.0788.

As to TGGCTTAA, the binding signal (normalized occupancy) is 0.073.

On to ACCCGTAA, for which the binding signal (normalized occupancy) was determined as 0.0742.

As for CTGGGCTC, the binding signal (normalized occupancy) stood at 0.0683.

CGAGCTCA: the binding signal (normalized occupancy) is 0.0739.

As for ACTATCGA, the binding signal (normalized occupancy) worked out at 0.0764.

For the sequence ACCAGATC, the binding signal (normalized occupancy) came out at 0.0785.

In the case of AGTTGAAT, the binding signal (normalized occupancy) was found to be 0.0699.

AGTACCGC: the binding signal (normalized occupancy) came to 0.0733.

Turning to AATGTTCT, the binding signal (normalized occupancy) was 0.0716.

AAATTGTT: the binding signal (normalized occupancy) came out at 0.0739.

On to GGCGTATA, for which the binding signal (normalized occupancy) worked out at 0.0747.

The values are drawn from publication PMC4242493.
